Laboratory results: PubChem BioAssay AID1745853 (National Center for Advancing Translational Sciences (NCATS), 2022)
Where “and” joins values, the source holds several entries; their conditions need not be identical. Equal values may be shown once. Some of the results follow. These are further read-outs of the screen, such as a control signal, another cell line or another target. No call is given for them.

Experiments:
Assay in all cases: Primary Screen for Target Class Profiling of Small Molecule Inhibitors of Methyltransferases
[1] = target: Glycine N-methyltransferase (Homo sapiens) (UniProt Q14749); details: purified enzyme, MTase-Glo SAH luminescence; measured here: GNMT inhibition; at 40 µM; stronger effect = lower value
Outline: (§1)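 Each enzyme was assayed with SAM and its substrate. SAH formation detected by MTase-Glo luminescence; single-point 40 uM screen[…].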

[2] = target: Guanidinoacetate N-methyltransferase (Homo sapiens) (UniProt Q14353); details: purified enzyme, MTase-Glo SAH luminescence; measured here: GAMT inhibition; at 40 µM; stronger effect = lower value
Outline: as §1

[3] = target: Histamine N-methyltransferase (Homo sapiens) (UniProt P50135); details: purified enzyme, MTase-Glo SAH luminescence; measured here: HNMT inhibition; at 40 µM; stronger effect = lower value
Outline: as §1

[4] = target: Nicotinamide N-methyltransferase (Homo sapiens) (UniProt P40261); details: purified enzyme, MTase-Glo SAH luminescence; measured here: NNMT inhibition; at 40 µM; stronger effect = lower value
Outline: as §1

[5] = target: Phenylethanolamine N-methyltransferase (Homo sapiens) (UniProt P11086); details: purified enzyme, MTase-Glo SAH luminescence; measured here: PNMT inhibition; at 40 µM; stronger effect = lower value
Outline: as §1
% is set by controls: 0 for no effect and ±100 for the full control effect.

SMILES	activity change, negative = inhibition [1]	activity change, negative = inhibition [2]	activity change, negative = inhibition [3]	activity change, negative = inhibition [4]	activity change, negative = inhibition [5]
CC(C)CCn1c(=O)c2ccc(C(=O)NC(C)C)cc2n2c(=O)n(Cc3c(F)cccc3Cl)nc12	1.91%	6.77%	0.805%	-0.867%	-0.461%
CC(NC(=O)c1ccc2c(=O)nc3c(-c4ccccc4)n[nH]n3c2c1)c1ccccc1 (stereo not given)	-8.25%	-2.27%	-5.04%	-1.89%	-7.83%
Cc1cc(C(=O)N2C[C@@H](CN3CCCCCC3)[C@@H](CO)C2)nc(C)n1	-3.33%	3.07%	-12.6%	0.684%	13.6%
COc1cccc(Cn2nc3n(C(C)C)c(=O)c4ccc(C(=O)NC5CCCC5)cc4n3c2=O)c1	2.8%	0.131%	9.31%	0.931%	5.28%
CCn1cc(S(=O)(=O)N2C[C@@H](Oc3ccccc3)C[C@H]2C(=O)N2CCCC2)cn1	-0.77%	-1.5%	2.5%	-5.21%	-8.89%
Cc1cc(C)cc(NC(=O)Cn2c(=O)oc3cc(S(=O)(=O)N4CC(C)CC(C)C4)ccc32)c1 (stereo not given)	0.064%	2.25%	-0.258%	2.25%	-20.1%
O=c1ccn([C@@H]2O[C@H](COP(=O)(O)OP(=O)(O)O)[C@@H](O)[C@H]2O)c(=O)[nH]1	11.2%	12.7%	13.5%	-6%	-0.144%
O=[S+]([O-])(c1ccccc1)N1CC2(CCCCN2Cc2cccnc2)Cc2ccccc21 (stereo not given)	-7.72%	-1.8%	-5.09%	-12.6%	10.6%
CC(C(O)c1ccc(O)cc1)N1CCC(Cc2ccccc2)CC1 (stereo not given)	-5.28% and 1.43%	-5.24% and 7.53%	-6.49% and -11.6%	-11.3% and -10.8%	-5.63% and -2.95%
CN(CC1CCOC1)S(=O)(=O)c1cccs1 (stereo not given)	-3.55%	-2.46%	-1.83%	-8.33%	-4.3%
Cc1ccccc1-n1cc(CNC(=O)C(c2cccc(F)c2)N(C)C)cn1 (stereo not given)	-0.461%	-1.54%	0.767%	-1.39%	1.27%
Cc1ccc(C(C)NC(=O)CN2C(=O)C3(CCNCC3)Nc3ccccc32)cc1 (stereo not given)	-5.87%	-8.86%	-5.88%	-17.7%	-24.5%
CCOC(=O)c1cc2n(n1)CC(C)(C(=O)NC1CCCCCC1)N(c1cccc(Cl)c1)C2=O (stereo not given)	6.17%	0%	-1.28%	1.51%	7.64%
COc1ccc(C(=O)CSc2nnc3n(CC(C)C)c(=O)c4ccc(C(=O)NC(C)C)cc4n23)cc1	3.84%	2.91%	-3.11%	0.525%	2.98%
CCCn1c(=O)c(C)cn2nc(N)nc12	-3.46%	7.9%	1.47%	-0.962%	9.2%
O=C(Nc1ccnn1C1CCN(Cc2ccc(-c3ccccc3)cc2)CC1)C1CC1	-3.15%	-1.32%	-2.55%	-2.95%	-1.41%
Cc1ccc(CNC(=O)c2ccc3c(=O)nc4c(-c5ccccc5F)n[nH]n4c3c2)cc1	-21.1%	2.29%	2.54%	5.58%	-0.234%
COc1cccc(NS(=O)(=O)c2ccc3[nH]c(=O)[nH]c3c2)c1	3.25%	2.42%	3.55%	-2.63%	-13.3%
FC(F)(F)c1cccc(-c2nccn3c(C4CN(Cc5ccc6cn[nH]c6c5)C4)ncc23)c1	-16.3%	-0.7%	-62.2%	-25.5%	-1.64%
O=C(O)Cn1nnc(-c2ccc(CN(CCCCOc3ccc(CN4CCCC4)cc3)CCc3ccccc3)cc2)n1	3.42%	27.7%	-58.3%	4.23%	10.3%
O=C(O)C1=CC(=C(c2ccc(O)c(C(=O)O)c2)c2ccc(O)c(C(=O)O)c2)C=CC1=O	-82.5%	-17.5%	-23.3%	-14.9%	-4.42%
COc1ccc(NC(=O)CSc2nnc3n(CC(C)C)c(=O)c4ccc(Cl)cc4n23)cc1	-8.17%	0.245%	-5.35%	-10.3%	-4.3%
CCN1C(=O)c2cc3ccccc3n2CC1(C)C(=O)NCC(=O)NCc1ccc(C)o1 (stereo not given)	-1.5%	0%	5.19%	-4.04%	0.058%
COc1ccc(N(C(=O)Nc2c(C)cccc2C)c2cc(Nc3ccc(N4CCN(C)CC4)cc3)ncn2)c(OC)c1	-12.8%	-0.59%	-38.4%	-50.1%	-7.03%
CCCNc1cc(N2CCC(CCC(=O)NCCN3CCCCCC3)CC2)ncn1	-11.4%	-3.83%	-55.4%	-49.8%	-61.7%
CCCN1CCC[C@@H](c2cccc(S(C)(=O)=O)c2)C1	-0.391%	0.359%	0.036%	-12.2%	-3.97%
COc1ccc(C(C)NC(=O)c2cc3n(n2)CC(c2ccc(Cl)cc2)OC3)cc1OC (stereo not given)	-11.7%	-2.56%	-0.844%	-4.67%	0.893%
COCCOCC(=O)N1CCCN(Cc2ccncc2)C(c2ccccc2)CC(=O)NCC1 (stereo not given)	-7.68%	-10.1%	-6.39%	-15.2%	-6.61%
CCCn1c(=O)c2ccc(C(=O)NC3CCCC3)cc2n2c(=O)n(CC(=O)Nc3ccc(CC)cc3)nc12	3.39%	0%	6.27%	3.6%	4.32%
CCC(C)NC(=O)c1ccc2c(=O)n(C)c3nn(Cc4ccc(Cl)cc4)c(=O)n3c2c1 (stereo not given)	-1.09%	0.563%	5.56%	-4.03%	1.42%
